PubChem BioAssay AID1851 (National Center for Advancing Translational Sciences (NCATS), 2009)
The hits were mostly taken out for another list; the other results follow. Records with an inconclusive call do not appear. Activity calls are given as the source filed them. Calls follow the shape of the dose curve; as a rule, active = well fitted curve in the direction sought with a large enough effect; inconclusive = small, poorly fitted or top-dose-only effect, or effect the other way; inactive = no such curve, though single readings can be large or run the other way.

The compounds below were run against Cytochrome P450 2D6 (Homo sapiens) (UniProt P10635) (assay: Cytochrome panel assay with activity outcomes). Conditions: recombinant CYP, pro-luciferin dealkylation, luminescence, p450-cyp2d6; series mostly up to 57.1 µM; activity, negative = inhibition: at the top concentration.
Procedure: The P450 gene superfamily is involved in the metabolism and clearance of xenobiotics. This assay used various human CYP P450 isozymes to measure the dealkylation of various pro-luciferin substrates to luciferin. The luciferin is then measured by luminescence after the addition of a luciferase detection reagent. Pro-luciferin substrate concentration in the assay was equal to its KM for its CYP P450 isozyme. Inhibitors and some substrates limit the production of luciferin, and decrease measured luminescence.
NCGC Assay Protocol Summary:
1, Reagent, 2 uL, Isozyme and Pro-Luciferin
2, Library compounds, 23 nl, 40 uM to 0.24 nM dilution series
3, Controls, 23 nl, Isozyme specific inhibitor
4, Reagent, 2 uL, NADPH regeneration solution
5, Incubation time, 60 min, Isozyme specific temperature
6, Reagent, 4ul, Detection reagent
7, Incubation time, 20 min, Isozyme specific temperature
8, Detection, 1 sec, ViewLux luminescent read
The luciferase-based P450-GloTM Screening Systems were obtained from Promega (Madison, WI) for CYP 1A2 (V9770), CYP 2C9 (V9790), CYP2 C19 (V9880), CYP 2D6 (V9890), and CYP 3A4 Luciferin-PPXE (V9910) and were adapted for 1,536-well microplates and an automated protocol. The control compounds furafylline for 1A2 (F124), sulfaphenazole for CYP 2C9 (S0758), ketoconazole for CYP 2C19 (K1003), quinidine for 2D6 (Q3625), and ketoconazole for 3A4 (K1003) were purchased from Sigma Aldrich (St. Louis, MO). Recombinant P450 enzymes were obtained from baculovirus constructs expressed in insect cells (BD/Gentest).
Medium-binding white solid Kalypsys plates used. Mixtures kept on ice. 1A2: 10 nM 1A2, 100 uM Luc-ME, 100 mM KPO4; 2C9: 10 nM 2C9, 100 uM Luc-H, 25 mM KPO4; 2C19: 5 nM 2C19, 10 uM Luc-H EGE, 50 mM KPO4; 2D6: 5 nM 2D6, 30 uM Luc-ME EGE, 100 mM KPO4; 3A4: 10 nM, 25 uM Luc-PPXE. All amounts are reflected in their final concentration, working concentration is 2x.
NADPH regeneration solution: 1.3 mM NADP+, 3.3 mM glucose-6-phosphate, 3.3 mM MgCl2, 0.4 U/mL glucose-6-phosphate dehydrogenase for all isozymes, 200 mM KPO4 for 3A4. Mixture prepared at RT but kept on ice during automated run.
RT incubation in auxilliary plate hotel for 1A2, 2D6, and 3A4; 37C for 2C9 and 2C19.
Keywords: P450, CYP1A2, CYP2C19, CYP2C9, CYP2D6, CYP3A4, Luciferase, MLSMR, MLSCN, NIH Roadmap, qHTS, NCGC
% is scaled to controls: 0 for no effect and ±100 for the full control effect.

Chain of UniProt P10635 (P10635 whole entry, looked up): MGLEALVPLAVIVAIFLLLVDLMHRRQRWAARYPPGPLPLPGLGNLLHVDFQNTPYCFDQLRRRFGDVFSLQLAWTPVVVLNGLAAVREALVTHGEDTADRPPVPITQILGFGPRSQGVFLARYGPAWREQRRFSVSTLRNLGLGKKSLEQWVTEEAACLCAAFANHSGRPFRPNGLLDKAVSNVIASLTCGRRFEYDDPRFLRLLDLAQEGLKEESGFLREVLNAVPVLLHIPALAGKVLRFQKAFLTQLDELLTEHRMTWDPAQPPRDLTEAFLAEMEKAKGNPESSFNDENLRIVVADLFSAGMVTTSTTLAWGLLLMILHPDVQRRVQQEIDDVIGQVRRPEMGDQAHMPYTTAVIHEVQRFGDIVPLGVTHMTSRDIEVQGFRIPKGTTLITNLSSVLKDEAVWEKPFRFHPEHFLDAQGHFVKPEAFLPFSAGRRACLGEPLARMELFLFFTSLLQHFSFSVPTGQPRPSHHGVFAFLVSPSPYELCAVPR

| SMILES | AC50 | activity, negative = inhibition |
| --- | --- | --- |
| COc1ccc(C2=NN(C)C(=NCc3ccccc3)SC2)cc1 | active: 5.62 µM | – |
| Nc1nc2ccc(OC(F)(F)F)cc2s1 | inactive | – |
| CCN(C(=O)CSc1nnc(Cc2cccc3ccccc23)n1N)C1CCS(=O)(=O)C1 (configuration not stated) | – | inactive: 17.2% |
| Nc1ccc(Sc2ccccc2CC(=O)O)cc1 | – | inactive: -16.1% |
| CCOc1cc(/C=N/n2cnnc2)ccc1OC(=O)c1cccc([N+](=O)[O-])c1 | – | inactive: -6.59% |
| Cc1ccc(OCCNC(=O)/C=C/c2ccc([N+](=O)[O-])cc2)cc1C | – | inactive: -5.47% |
| C[C@@H]1C[C@H]2[C@@H]3C[C@H](F)C4=CC(=O)C=C[C@@]4(C)[C@]3(F)[C@H](O)C[C@]2(C)[C@@]1(O)C(=O)CO | – | inactive: -3.97% [at 25.6 µM] |
